Measurements: the RNAGym collection of RNA variant scans (doi:10.7554/elife.90254)
The source gives no read counts; variants with many changes may rest on few reads.

B1: LINE1-full (parent)
chain: UACGUAGGUGGUUUUCCCCUGAUAGUGCUAAGGGGGCCUGGAAGUUUGGACUGGGCAGAGCUCAACACAGCGUGGCAAAGUGGCUGUGGCUAGACUGCCUCUCUGGAUUCCUCGUCACUCAGCAGGGCAUCUCUGAGAGAAAUGCC

Variants of: B1
Test: self-cleavage, relative activity (ratio to wild type); higher = more cleavage; in vitro, sequencing; the parent is a self-cleaving ribozyme

Variant	self-cleavage
U9A G72C U81C A121C	2.3
U9A G75A U132C	1.01
U9A G83A A136G	1.29
U9A U12C A22U U85A U102C	0.3
U9A U12C A30U A43G C63U A77G A142G	1.49
U9A U12C A57U A64U	0.38
U9A U12C A124U	1.14
U9A U12C C38U A59U A67U	0.47
U9A U12C G54A U73A U130C A142G	0.43
U9A U12C U13C U130C	0.91
U9A U12C U14C G75U A78U A117U C145A	1.46
U9A U12C U115C	2.63
U9A U12G A50G A124U	1.04
U9A U13A U87A U119G	0.13
U9A U13C A22G	0.62
U9A U13C A42G A141G	0.84
U9A U13C A43U C98U	0.53
U9A U13C C101U U104C	1.14
U9A U13C C123U	0.73
U9A U13C U45C A92G U112C	0
U9A U13G U15A U26A	0.23

Variant	self-cleavage
U9A U14A A65U A77G	0.56
U9A U14C A57G	1.28
U9A U14C C37A U87C U100C	0.54
U9A U14C U23C U39C U62A A79G	0
U9A U15C A67G A117U	0.46
U9A U15C C56U U108C A136G	0.84
U9A U15C G41U	0.82
U9A U15C U29C A57G G72A	1.31
U9A U20A A78G U100C A138G	1.84
U9A U20C A50U A77G	1.5
U9A U20C A121U	1.24
U9A U20C G27A A59U	0.26
U9A U20C U85C U108C A136G A142G	0
U9A U20C U115C A124U	1.19
U9A U20G U81C	0.63
U9A U23A U132C	1.42
U9A U23C A57G A107U	0
U9A U26A U46C G53A A64G	0.18
U9A U26C G32U U73C G93A	0.17
U9A U26C U62C	0.29
U9A U26G A43G	0.36

Variant	self-cleavage
U9A U26G C116U A140U	0.94
U9A U29A U45C A117U	0.84
U9A U29A U96C	0.34
U9A U29C U81A A94G A138G	0.95
U9A U39A A138G	1.08
U9A U39A U73A C120U	1.23
U9A U39C C66U U112C A138G	0.05
U9A U39C G41A U130C	2.07
U9A U39C U73C A117U U143A	1.8
U9A U39G U119C	1.38
U9A U45A U91C U100C A140G	1.77
U9A U45C A69U A136U	0.04
U9A U45C G55A A79G	0.25
U9A U45C U109G	0
U9A U46A A64C	0.52
U9A U46A A79G	0.72
U9A U46A U130C	0.81
U9A U46A U132C A142G	1.33
U9A U46C C95A	0.1
U9A U46C G70A	0.48
U9A U46G U47C U52C A77U	1.53

Variant	self-cleavage
U9A U47A A64G	0.21
U9A U47A G86A A121G	0.04
U9A U47C U100C A124G	1.84
U9A U52A U112C A140G	1.25
U9A U52C A136U	1
U9A U62A A141G	0.1
U9A U62C A124G	0.24
U9A U73A A77U	1.53
U9A U73C A78G U109C	0
U9A U85C C116A A124U A141U	0.29
U9A U91A A92G	0
U9A U91G U96C	0
U9A U96C A107G	0.18
U9A U102C U115C	1.53
U9A U102C U115C A140G	1.08
U9A U104A U119C U130C	2.19
U9A U108C G137U	1.3
U9A U130A U132C	1.12
U9A U130C A142G	1.61
U9C A22G A42G A138C	1.31
U9C A24G A42G U143C	1.23
